This is an account of results in the RNAGym collection of RNA variant scans (doi:10.7554/elife.90254).

Read counts are not given, so values of variants with three or more changes are uncertain.

Sequences and labels used below:
B1: LINE1-mini (parent)
chain: GGCAGAGCUCAACACAGCGUGGCAAAGUGGCUGUGGCUAGACUGCC

In the data set the parent is B1. The experiment in a line: self-cleavage, relative activity (ratio to wild type); higher = more cleavage; in vitro, sequencing; the parent is a self-cleaving ribozyme.
Regarding A4C U20G U28A, the self-cleavage was found to be 0.04. With G2U G17A G33U C42A C45A the figure was 0. On to G19U U20C G29A C37A C45G, for which the self-cleavage was 0. For C8A U9A A12C G21A U32G the value was 0.03; for G2U C13U A24U, 0.06. With C8G G33U U38G the figure was 0.03; with C3G A6G C8G, 0.03; with C8A C31A U34C A41U, 0.23. With U20G A26U G35U the figure was 0.26; with A24U A39G G40C U43A, 0.09. With G7C C13A C15U C31U, the self-cleavage came to 0.13. With G2U A24U U34A G35U the figure was 0.01. With C3A G5U A25U A26G C46A the figure was 0.05; with G21A G33A U38G A39C C42A, 0.04. With A26U U34A G40U C46G the figure was 0.01; with U20A G27A C31G G35C U43A, 0.02.

Consider A26U U32G A39U G40C, for which the self-cleavage worked out at 0.

With C18A U43C C45U, the self-cleavage was 0.04. For A26U G29U G30C the value was 0.11. For G1U C15U C23G C37U, the self-cleavage was 0.02. With C8U C13U A16C C18G the figure was 0.08. For U20C C37U C42G the value was 0.01; for G2U G27U U38C, 0.03. With G7A A16U C23U G40C A41G C42A the figure was 0.02; with G7U G17A G36U, 0.06. As to G1C C15U G21U, the self-cleavage amounted to 0.19. For the variant G19U A26U C42U, the self-cleavage was 0.11. With A6G U32G C37G the figure was 0. With C13A C18U C37U the figure was 0.1; with C15G U20G G36A G40C C42G G44A, 0.01; with A11U U20C A39G, 0.03. With G22U A25G G27A C31A G44A, the self-cleavage was determined as 0.07. With A11G C23G C45G the figure was 0.01; with G1U U9C C10A C31G G40A, 0.01. With G5U A12U C31U G44A C45G the figure was 0.28; with G21C G27U U28C A41G, 0.34; with G22U A25U U38A A39G, 0.14.

Regarding G1U G7C U9G G35C, the self-cleavage was 0.02. For G33A C42A U43A the value was 0.1.

Consider A4C G33U C45A, for which the self-cleavage was found to be 0.03. For G2C A6C C15U the value was 0.11. For G5A G7A C15G the value was 0.24. For G5C C10G G44C the value was 0.02.

On to A6U C8A U9G G21C A26C A41C G44A, for which the self-cleavage came out at 0.03. For G7A C10A C15U G33C C45A the value was 0.12; for G5C C13G G22C A24U, 0.01. For A6G G30C G40A, the self-cleavage came to 0.08. With A16U C18G U20C U32G G33U A39C the figure was 0.01. Take C10A G30U A39U C42A: the self-cleavage stood at 0.05. For A6U U9A C15G C42A the value was 0.02. For G2U C8A C18G A41G C42G the value was 0.02.

Regarding C8A U9A A25G C37G U43C G44C, the self-cleavage came to 0.14. Take G29A G30A U43A: the self-cleavage came to 0.38. With G2U C13A G17C A26C C37G the figure was 0. With C23U A41G C42A G44C the figure was 0.07; with G2U G36U C46U, 0.11; with G7A G22A C23U G27A, 0.03.

In the case of G7C A14U G40A, the self-cleavage turned out to be 0.34. For G7C C31G G44A the value was 0.03. With C3G C13A A26C C46A the figure was 0.05. In the case of G19A A25U G33A, the self-cleavage was determined as 0.03. For A6G C8A U28G G44A the value was 0.03; for A4U C18U C23G, 0.17; for C10U U28C G44A, 0.06. With A4C G35C C42U the figure was 0.06; with A11C G17A G29U A39G G40U, 0. As for C10A A16C C42G, the self-cleavage is 0. For G2C G7U A14G G35U the value was 0.7. With G22U G30U U32C A41G the figure was 0.09; with C13U A14U C18A U20C, 0.02; with G5A C23A A39C U43C G44U, 0.05.

A4G A11G C23U: the self-cleavage is 0.01. For C10A G21C U34G the value was 0.05; for G2C A24U A26G G30U, 0.05; for A14G G35U A39G, 0.15. With G2A G27C A41U the figure was 0.06. With A11G G19U C31G G33U, the self-cleavage is 0.02. For U20A G22C G29A the value was 0.8; for G27C G33U C42G, 0.08; for U9A A14C U32C G40A, 0.06.

For the variant C3A C13A G19C G21U U28G C31G G40C, the self-cleavage amounted to 0.07. With A24C A39U U43C the figure was 0; with U9G G17U U43A G44C, 0.01; with G7A C15A A26G U28C, 0.01.

Regarding G5U C10U G27A, the self-cleavage is 0.12.

On to G17C U28C G44C, for which the self-cleavage was found to be 0.07. With C15A G19U U32G the figure was 0.02; with C3A C37A A39G, 0.11; with A11C G17U G19C G27U C31G, 0.02. For G7C C13U U28G G30U the value was 0.02; for C3U A6U A12C G17A C45G, 0; for C3A A4U U9C A11U A16C G27U, 0.03. With U9G A12U C13A G29A A39C the figure was 0.11; with C15G C18U C31U C42U, 0.04. For the variant G2C U9A C10G A14C C15A C31A G36C, the self-cleavage is 0.01. On to C18A G29A C37A A39G, for which the self-cleavage is 0.03. For C8A A11C G29A U38A the value was 0.01.

On to A12C U28G G36C, for which the self-cleavage was 0.01. With G7A U28G G44A C45U the figure was 0.16; with A14C C15A A16G, 0.04; with U9G A12G C13A G33U, 0. Turning to C8A G19C G33C U43A C46A, the self-cleavage is 0.15. Regarding G7A A16U G27U, the self-cleavage is 0.16. For G19A G21A C37G C42A the value was 0.02; for C3U A14G C45G, 0.11. For G1U C31A C42G G44C the value was 0.03. With A4G A14U G17U the figure was 0.01; with G1A G5U G21U, 0.13.

Regarding G2A G5C A6U, the self-cleavage came to 0.21. For C3U A16U G36U G40U the value was 0.08.

Regarding G1A A4C C8U G36A C46U, the self-cleavage was determined as 0.37.

As to A6U A25U A39G, the self-cleavage was found to be 0.21. For G5A C18A A24G G29C G44C the value was 0.01. For G7C C13A C31A U43A the value was 0.02. With A26C G29U A39C the figure was 0.04. G1A U28G A41C: the self-cleavage worked out at 0.05. Consider C15U G17C A24U, for which the self-cleavage is 0.06. As for U20G U34C A41G, the self-cleavage came out at 0.03. For A26U C31A U38A A41G G44A C45A the value was 0.03; for C23A U32C U34G A39U, 0.03; for G2A G5A G7U C8U C46G, 2.34. For G1U C10U U32G C42A the value was 0; for A14C U20C A24G G35U, 0.08; for C10A U34G C45U, 0.04. For C18A G22A A24C the value was 2.16; for A6G A12G A26G G35C C37G, 0.01; for A25G A26U G29A C42U, 0.13. G1A C3A U9G U34G G36A C45A: the self-cleavage was 0.12. With A12G C37G C42U C46G the figure was 0.01; with G5U A39G C42G, 0.05; with A12C C18U G33C G36C, 0.02. For A11U U28G G44A the value was 0.02; for G7C G27U G36A C37G, 0.01; for C3U A6U G27C G30C C37G, 0.1. With C10U G21C G29U U34A G35U C45U the figure was 0.02; with C10A G21A U38G C42U, 0.03; with A25C C31A C45U, 0.01.

As for G1C G2A G7C A25G, the self-cleavage stood at 0.1. For G1U A4G C13U C45U the value was 0.12; for G2C C15G G21U G29A G33U A39C C45G, 0.01.

Consider A14G C18A G44U, for which the self-cleavage is 0.04. For the variant A11G G36C C37A, the self-cleavage came to 0.02. Take A12C U34G C42G: the self-cleavage came out at 0.

With C10G C13U A41G C42U C46U, the self-cleavage came out at 0.

Regarding C8A A12U G17U G21A A26C C31G, the self-cleavage was 0.41. For U9G C15G G19A C31U A39G the value was 0.02; for A12G C18A A26G G27C U38G, 0; for G5U A24U G29U, 0.16.

In the case of U20A G29A C31U C42A C45G, the self-cleavage was determined as 0.05.

U20G G21U C23U G36A: the self-cleavage was 0.04. For A12G A16U G27A G33A the value was 0.08; for A4G C10A G22U C45U, 0.01; for C13A G22C C23A G27U, 0.09. For G5A C15A G36C U38A the value was 0.06; for C3G G33A G35A, 0.02; for C10A A11C A14U G19A C42A, 0.01. As for G7U U28C G29C C31G, the self-cleavage was 0.

With C18U U34A C45U, the self-cleavage came to 0.05. With C3A A16U C23U C31A G40C the figure was 0.06.

For the variant C3A U32G C37A C45A, the self-cleavage amounted to 0.16.

For the variant C3U G21C C37A, the self-cleavage turned out to be 0.03. For G1U A12C C13A C46G the value was 0.04; for C3A G19C C31U G33A, 0.19.

A4C G22U C45G: the self-cleavage was 0.34. For C8A A12C G27C G40C the value was 0.07.

For the variant U20A A39G C46G, the self-cleavage was found to be 0.02.

In the case of A6G G7A C15U G19U G40C, the self-cleavage was 0.24.
